# Reference: the supplement of paper PMC8728848
# This is one part of the list.
# B1: DC-Sign (Homo sapiens), Q9NNX6 (protein)
# chain: MSDSKEPRLQQLGLLEEEQLRGLGFRQTRGYKSLAGCLGHGPLVLQLLSFTLLAGLLVQVSKVPSSISQEQSRQDAIYQNLTQLKAAVGELSEKSKLQEIYQELTQLKAAVGELPEKSKLQEIYQELTRLKAAVGELPEKSKLQEIYQELTWLKAAVGELPEKSKMQEIYQELTRLKAAVGELPEKSKQQEIYQELTRLKAAVGELPEKSKQQEIYQELTRLKAAVGELPEKSKQQEIYQELTQLKAAVERLCHPCPWEWTFFQGNCYFMSNSQRNWHDSITACKEVGAQLVVIKSAEEQNFLQLQSSRSNRFTWMGLSDLNQEGTWQWVDGSPLLPSFKQYWNRGEPNNVGEEDCAEFSGNGWNDDKCNLAKFWICKKSAASCSRDEEQFLSPAPATPNPPPA
# How the values were obtained:
# Experiment in all cases: glycan array binding signal (z-score within array); higher = stronger binding
# Conditions in all cases: glycan notation: IUPAC condensed, linker removed
# [1] = molecular target: Neu5Ac(a2-6)GlcNAc(b1-4)GlcNAc
# Outline: (§1)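 Arrays were curated from the Consortium for Functional Glycomics database, 3228 in total, and kept only where the protein sequence was available. Binding is expressed as a within-array Z-score. This score was averaged across arrays of the same protein sequence at different concentrations or buffers and across linkers, and negative values can be read as non-binding.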
# [2] = molecular target: Neu5Ac(a2-6)GlcNAc(b1-4)GlcNAc(b1-4)GlcNAc
# Outline: as §1
# Neu5Ac(a2-8)Neu5Ac = molecular target: Neu5Ac(a2-8)Neu5Ac
# Outline: as §1
# [3] = molecular target: Neu5Ac(a2-8)Neu5Ac(a2-3)Gal(b1-3)GalNAc(b1-4)[Neu5Ac(a2-3)]Gal(b1-4)Glc
# Outline: as §1
# [4] = molecular target: Neu5Ac(a2-8)Neu5Ac(a2-3)Gal(b1-3)GalNAc(b1-4)[Neu5Ac(a2-8)Neu5Ac(a2-3)]Gal(b1-4)Glc
# Outline: as §1
# [5] = molecular target: Neu5Ac(a2-8)Neu5Ac(a2-3)Gal(b1-4)Glc
# Outline: as §1
# [6] = molecular target: Neu5Ac(a2-8)Neu5Ac(a2-3)Gal(b1-4)GlcNAc
# Outline: as §1
# [7] = molecular target: Neu5Ac(a2-8)Neu5Ac(a2-3)[Gal(b1-3)GalNAc(b1-4)]Gal(b1-4)Glc
# Outline: as §1
# [8] = molecular target: Neu5Ac(a2-8)Neu5Ac(a2-3)[GalNAc(b1-4)]Gal(b1-4)Glc
# Outline: as §1
# [9] = molecular target: Neu5Ac(a2-8)Neu5Ac(a2-8)Neu5Ac
# Outline: as §1
# [10] = molecular target: Neu5Ac(a2-8)Neu5Ac(a2-8)Neu5Ac(a2-3)Gal(b1-4)Glc
# Outline: as §1
# [11] = molecular target: Neu5Ac(a2-8)Neu5Ac(a2-8)Neu5Ac(a2-3)[Gal(b1-3)GalNAc(b1-4)]Gal(b1-4)Glc
# Outline: as §1
# [12] = molecular target: Neu5Ac(a2-8)Neu5Ac(a2-8)Neu5Ac(a2-3)[GalNAc(b1-4)]Gal(b1-4)Glc
# Outline: as §1
# [13] = molecular target: Neu5Ac(a2-8)Neu5Ac(a2-8)Neu5Ac(a2-8)Neu5Ac(a2-3)[GalNAc(b1-4)]Gal(b1-4)Glc
# Outline: as §1
# [14] = molecular target: Neu5Ac(a2-8)Neu5Gc(a2-3)Gal(b1-4)GlcNAc
# Outline: as §1
# [15] = molecular target: Neu5Ac(b2-6)Gal(b1-4)GlcNAc
# Outline: as §1
# Neu5Ac(b2-6)GalNAc = molecular target: Neu5Ac(b2-6)GalNAc
# Outline: as §1
# [16] = molecular target: Neu5Ac9Ac(a2-3)Gal(b1-3)GlcNAc
# Outline: as §1
# [17] = molecular target: Neu5Ac9Ac(a2-3)Gal(b1-4)GlcNAc
# Outline: as §1
# [18] = molecular target: Neu5Ac9Ac(a2-6)Gal(b1-4)GlcNAc
# Outline: as §1
# [19] = molecular target: Neu5Gc(a2-3)Gal(b1-3)GlcNAc
# Outline: as §1
# [20] = molecular target: Neu5Gc(a2-3)Gal(b1-3)[Fuc(a1-4)]GlcNAc
# Outline: as §1
# Neu5Gc(a2-3)Gal(b1-4)Glc = molecular target: Neu5Gc(a2-3)Gal(b1-4)Glc
# Outline: as §1
# [21] = molecular target: Neu5Gc(a2-3)Gal(b1-4)GlcNAc
# Outline: as §1
# [22] = molecular target: Neu5Gc(a2-3)Gal(b1-4)GlcNAc(b1-3)Gal(b1-4)GlcNAc(b1-2)Man(a1-3)[Neu5Gc(a2-3)Gal(b1-4)GlcNAc(b1-3)Gal(b1-4)GlcNAc(b1-2)Man(a1-6)]Man(b1-4)GlcNAc(b1-4)GlcNAc
# Outline: as §1
# [23] = molecular target: Neu5Gc(a2-3)Gal(b1-4)[Fuc(a1-3)]GlcNAc
# Outline: as §1
# [24] = molecular target: Neu5Gc(a2-6)Gal(b1-4)GlcNAc
# Outline: as §1
# Neu5Gc(a2-6)GalNAc = molecular target: Neu5Gc(a2-6)GalNAc
# Outline: as §1
# [25] = molecular target: Neu5Gc(a2-8)Neu5Ac(a2-3)Gal(b1-4)GlcNAc
# Outline: as §1
# [26] = molecular target: Neu5Gc(a2-8)Neu5Gc(a2-3)Gal(b1-4)GlcNAc
# Outline: as §1
# [27] = molecular target: Neu5Gc(a2-8)Neu5Gc(a2-3)Gal(b1-4)GlcNAc(b1-3)Gal(b1-4)GlcNAc
# Outline: as §1
# [28] = molecular target: Neu5Gc(a2-8)Neu5Gc(a2-6)Gal(b1-4)GlcNAc
# Outline: as §1
# [29] = molecular target: Neu5Gc(b2-6)Gal(b1-4)GlcNAc
# Outline: as §1
binder,measurement,setting,value
B1,glycan array binding signal (z-score),[1],-0.152
same,glycan array binding signal (z-score),[2],-0.196
same,glycan array binding signal (z-score),Neu5Ac(a2-8)Neu5Ac,-0.155
same,glycan array binding signal (z-score),[3],-0.184
same,glycan array binding signal (z-score),[4],-0.155
same,glycan array binding signal (z-score),[5],-0.177
same,glycan array binding signal (z-score),[6],0.033
same,glycan array binding signal (z-score),[7],-0.152
same,glycan array binding signal (z-score),[8],-0.189
same,glycan array binding signal (z-score),[9],-0.152
same,glycan array binding signal (z-score),[10],-0.187
same,glycan array binding signal (z-score),[11],-0.167
same,glycan array binding signal (z-score),[12],-0.192
same,glycan array binding signal (z-score),[13],-0.19
same,glycan array binding signal (z-score),[14],0
same,glycan array binding signal (z-score),[15],-0.118
same,glycan array binding signal (z-score),Neu5Ac(b2-6)GalNAc,-0.19
same,glycan array binding signal (z-score),[16],-0.187
same,glycan array binding signal (z-score),[17],-0.175
same,glycan array binding signal (z-score),[18],-0.173
same,glycan array binding signal (z-score),[19],-0.195
same,glycan array binding signal (z-score),[20],-0.072
same,glycan array binding signal (z-score),Neu5Gc(a2-3)Gal(b1-4)Glc,-0.174
same,glycan array binding signal (z-score),[21],-0.144
same,glycan array binding signal (z-score),[22],-0.136
same,glycan array binding signal (z-score),[23],-0.16
same,glycan array binding signal (z-score),[24],-0.172
same,glycan array binding signal (z-score),Neu5Gc(a2-6)GalNAc,-0.159
same,glycan array binding signal (z-score),[25],0.02
same,glycan array binding signal (z-score),[26],-0.075
same,glycan array binding signal (z-score),[27],-0.179
same,glycan array binding signal (z-score),[28],-0.061
same,glycan array binding signal (z-score),[29],-0.179
